Measured values taken from PubChem BioAssay (NCI).
“And” between values parts separate entries of the source, which are not always exact repeats. Identical values can stand only once.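 Step 1: Grow cells in 96-well plates. Step 2: Expose to compound for 48 hours at 5 concentrations. Step 3: Interpolate endpoints linearly; if unreached, use highest concentration. GI50 is the concentration that inhibits growth by half. The concentration for full growth arrest is given as TGI.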 Numbered stars: 1 amine (or outer) side, 2 acyl side, 3 side chain; on linkers, the order of the positions; unused ones are H or OH. Bridge positions count the residues as written; N and C are the ends. Square brackets hold non-standard residues; d marks the D form. Peptide text beside a SMILES is read from it. I, II: the chains in the order shown. Actinocin(9to1) = Cc1c2oc3c(C)ccc(C(=O)[*:1])c3nc-2c(C(=O)[*:2])c(N)c1=O; X44 = O=C1CC(C(=O)[*:2])N([*:1])C1; NMeV = CN[CH](C(=O)O)C(C)C; Sar = CNCC(=O)O

test system: NCI-H322M lung; test: NCI tumour cell line growth inhibition, 48 h

| Compound | TGI | GI50 [µM] |
| --- | --- | --- |
| CC1(C)CC[C@]2(C(=O)O)CC[C@]3(C)C(=CC[C@@H]4[C@@]5(C)C[C@H](O)[C@H](O)[C@@](C)(CO)C5=CC[C@]43C)[C@@H]2C1 | > 100 µM | – |
| CC1(C)C(O)C[C@]23CCC[C@](C)(C[C@@H](O)C12)C3 (some centres not stated) | > 100 µM | – |
| CCN(CC)CCOc1ccc(/C(=C(\C)Cc2ccc(OC)cc2)c2ccc(OC(=O)NCc3ccccc3)cc2)cc1 | 14.4 µM | 3.72 |
| Cc1cccc(N=Nc2c(C)nn(C(=O)CC(=O)Nc3ccccc3)c2C)c1 | > 100 µM | – |
| Cc1cc(O)c(C(C)C)cc1CN1CCCCC1 | > 100 µM | – |
| COc1ccc(/C=C(\C#N)c2nc(N)nc(N3N=C(C)CC3(C)C)n2)c(O)c1 | 45.9 µM | – |
| Cn1ncc2c(/N=C/c3cccs3)[nH]c(=S)nc21 | > 81.4 µM | 37.2 |
| O=S(=O)(O)c1cccc2c(N=Nc3c(O)ccc4ccccc34)cccc12 | > 100 µM | – |
| COc1ccc(/C(C)=C(\c2ccc(Cl)cc2)c2ccc(OCCN3CCCC3)cc2)cc1F | 6.24 µM | 3.07 |
| O=C(O)c1ccc2c(c1Nc1ccccc1)C(=O)c1ccccc1C2=O | > 100 µM | 37 |
| Nc1ccc2c(c1)C(=O)N(O)C2=O | > 100 µM | – |
| COC(=O)C(C)NP(=O)(OCc1ccc(Cn2cnc3c(=O)[nH]c(N)nc32)cc1)Oc1ccccc1 (configuration not stated) | > 100 µM | > 100 |
| Cc1cn(C2CC(O)C(Cn3cc(Cn4ncc(=O)[nH]c4=O)nn3)O2)c(=O)[nH]c1=O (configuration not stated) | > 100 µM | – |
| O=C1OCc2c1cc(F)cc2[N+](=O)[O-] | > 100 µM | > 100 |
| O=C(NC1CCC(=O)N1C(=O)OCc1ccccc1)OCc1ccccc1 (configuration not stated) | > 100 µM | – |
| O=C(O)C1(C(=O)O)CC1(C(=O)O)C(=O)O | > 100 µM | – |
| COC1=NC(NC2OCC(O)C(O)C2O)=C(NC(C)=O)CN1C (configuration not stated) | > 100 µM | – |
| CCCCOC(=O)C1CN2C=CC=NC2=NC1(C(F)(F)F)C(F)(F)F (configuration not stated) | > 100 µM | – |
| NC(=O)N/N=C(\C(=O)C(=O)Nc1ccc(Cl)c(C(F)(F)F)c1)c1nc2ccc(C(=O)c3ccccc3)cc2[nH]c1=O | > 100 µM | – |
| COC(=O)C1=CN=C(C(=O)OC)NN1 | > 100 µM | – |
| NCCNc1nc(N2CCCC2)c2nc(Cl)c(NCc3ccccc3)nc2n1 | 5.94 µM | – |
| COC(=O)C1Cc2cccc(C)c2C1 (configuration not stated) | > 100 µM | – |
| N#CC1=C(S)N(C2OC(CO)C(O)C(O)C2O)C(c2ccccc2)=CC1c1ccccc1 (configuration not stated) | > 100 µM | – |
| N#CC(=S)Nc1ccc(Cl)c(Cl)c1 | > 76.4 µM | – |

| Compound | TGI | GI50 [µM] |
| --- | --- | --- |
| COC(=O)C(C(=O)C(=O)Nc1ccccc1C(C)=O)c1nc2ccc(Cl)cc2[nH]c1=O (configuration not stated) | > 100 µM | – |
| N/C(=N\N=C\c1cccs1)NO | > 100 µM | – |
| Nc1ccccc1N/C(=C\C(=O)C(Cl)(Cl)Cl)c1ccccc1 | > 100 µM | – |
| CC(=O)OCc1cc(OC(C)=O)cnc1COC(C)=O | > 100 µM | – |
| Cc1cccc2c(N=Nc3ccc(S(N)(=O)=O)cc3)c(O)[nH]c12 | > 25 µM | > 25 |
| O=C(Cn1cc(-c2ccccc2)nn1)NC1CCCC1 | > 100 µM | – |
| COc1cc(C#N)cc(OC)c1OCCOCCOc1c(OC)cc(C#N)cc1OC | > 100 µM | > 100 |
| Cc1c2oc3c(C)ccc(C(=O)NC4C(=O)NC(C(C)C)C(=O)N5CC(=O)CC5C(=O)N(C)CC(=O)N(C)C(C(C)C)C(=O)OC4C)c3nc-2c(C(=O)NC2C(=O)NC(C(C)C)C(=O)N3CC(=O)CC3C(=O)N(C)CC(=O)N(C)C(C(C)C)C(=O)OC2C)c(N)c1=O (configuration not stated) (I: TV[X44][Sar][NMeV] / II: TV[X44][Sar][NMeV]; ester I:1-I:C, II:1-II:C; linker I:N-II:N via Actinocin(9to1); configuration not given here) | > 1 µM | – |
| O=C1c2cccnc2S(=O)N1Cc1ccccc1 (configuration not stated) | > 100 µM | – |
| CCCCCCCC/C=C\CCCCCCC(F)C(=O)O (configuration not stated) | > 12.5 µM | – |
| O=C(Nc1nccs1)c1cc2c(cc1Cl)Sc1nccn1S2(=O)=O | 33.7 µM | 17.5 |
| O=C(c1cccc(OCc2ccccc2)c1OCc1ccccc1)N1CCSC1=S | > 90.4 µM | – |
| CCCN1CN(C(C(=O)N[C@@H]2C(=O)N3C2SC(C)(C)C3C(=O)O)c2ccccc2)CSC1=S (some centres not stated) | > 100 µM | – |
| N[C@H]1CCN(c2c(F)cc3c(=O)c(C(=O)O)cn4c3c2Oc2cc3c(ccc5ccccc53)cc2-4)C1 | 6.09 µM | – |
| COc1cccc2c(NNc3ccccc3)c3ccc([N+](=O)[O-])cc3nc12 | > 100 µM | – |
| COc1c2c(cc3c1C(O)N1CC[C@]34[C@H]3O[C@H]3[C@H](OC)C[C@@H]14)OCO2 (some centres not stated) | > 100 µM | – |
| CN(C)CCCN(c1nc(C(Cl)(Cl)Cl)ns1)c1nc(C(Cl)(Cl)Cl)ns1 | 22.4 µM | 6.47 |
| O=C(O)C(CSC(c1ccccc1)(c1ccccc1)c1ccccc1)N=Cc1cccs1 (configuration not stated) | > 100 µM | – |
| O=S1(=O)OC(c2ccc(O)cc2)(c2ccc(O)cc2)c2ccccc21 | > 100 µM | – |
| NS(=O)(=O)c1ccc(NNc2c3ccccc3nc3ccccc23)cc1 | 21.5 µM | – |
| COc1ccc(CNc2nc3cc(C(F)(F)F)ccc3nc2C(=O)O)cc1OC | > 100 µM | – |
| N.N.N.N.N.N.[I-].[Os] | > 100 µM | > 100 |
| COc1ccc(C(c2ccc(C(C)C)cc(=O)c2O)c2ccc3cccnc3c2O)cc1 (configuration not stated) | 77 µM | – |
| C[C@]12CCC(=O)C=C1CC[C@@H]1[C@@H]2[C@@H](O)C[C@@]2(C)[C@H]1CC[C@]2(O)C(=O)CO | > 100 µM | – |

| Compound | TGI | GI50 [µM] |
| --- | --- | --- |
| CC1(C)C=C(/C=N/Nc2ccc([N+](=O)[O-])cc2)C(C#N)=C(O)C1(C#N)C#N | > 100 µM | – |
| C=C[C@]1(C)CCC2=C(CCC3C2(C)CCC[C@]3(C)CO)C1 (some centres not stated) | > 100 µM | – |
| Cn1c(=O)c2c(no[n+]2[O-])n(C)c1=O | > 100 µM | – |
| Nc1nc(N)c2c(n1)NC(c1ccccc1)CC(/C=C/c1ccc(Cl)cc1)=N2 (configuration not stated) | 28.2 µM | – |
| CCc1ccccc1NC(=O)CCc1n[nH]c(=S)o1 | > 100 µM | – |
| CN(C)C(=O)/N=c1\ss/c(=N\C(=S)N(C)C)n1-c1ccccc1 | > 100 µM | – |
| COc1cc(/C=C/C(=O)c2ccc(Nc3ncnc4ccccc34)cc2)cc(OC)c1 | > 100 µM | 45.3 |
| Cc1cc(O)c(C(c2cccnc2)c2c(O)cc(C)[nH]c2=O)c(=O)[nH]1 | > 100 µM | – |
| CCOC(=O)/C(=C/c1ccc([N+](=O)[O-])cc1)C(=O)c1ccccc1 | 6.61 µM | 2.36 |
| COc1ccc(N=C2C(=O)C3=C(OC(C)(C)CC3)c3ccccc32)cc1 | 6.48 µM | – |
| CCOC(=O)c1sc2nc(SC)nc3c2c1N=CN3c1ccccc1Cl | > 100 µM | – |
| COc1cc2ccc3c4c(OC)cc(OC)c(OC)c4c(=O)n(C)c3c2cc1OC | 16.7 µM and > 42.2 µM | 1.34 |
| CN1CCC[C@@H]1CCO[C@](C)(c1ccccc1)c1ccc(Cl)cc1 | 24.6 µM | 11.6 |
| CC(C)CC(NC(=O)C(CC(C)C)NC(=O)C(Cc1cnc[nH]1)NC(=O)C(C)NC(=O)C(NC(=O)C(C)NC(=O)C(Cc1c[nH]c2ccccc12)NC(=O)C(CCC(=O)O)NC(=O)C(N)Cc1ccccc1)C(C)C)C(N)=O (configuration not stated) (H-FEWAVAHLL-NH2; configuration not given here) | > 100 µM | 64.8 |
| CCOC(=O)C(Cc1ccccc1)NC(=O)c1ccc(N=NN(C)C)cc1 (configuration not stated) | > 100 µM | – |
| O=c1c2ccccc2nc(-c2ccc(Br)cc2)n1NC1OC(CO)C(O)C(O)C1O (configuration not stated) | > 100 µM | – |
| CCOC(=O)CC(=O)C(=O)NNC1=NCCCN1 | > 100 µM | – |
| N#Cc1c(-c2ccccc2)c(N=Nc2ccc(F)cc2)c(=O)n2c1[nH]c1ccccc12 | 7.18 µM | – |
| COc1cc(/C=C2\CN(C)C/C(=C\c3cc(OC)c(OC)c(OC)c3)C2=O)cc(OC)c1OC | 2.04 µM | 0.76 |
| Nc1ncnc2c1ncn2C1C=CC(CP(=O)(O)O)C1 (configuration not stated) | > 100 µM | – |
| CC(=O)NC(CCCCNC(=O)N(CCCl)N=O)C(=O)NCc1ccccc1 (configuration not stated) | > 100 µM | – |
| Clc1ccc(Nc2nc(Cl)c3[nH]cnc3n2)cc1Cl | > 100 µM | – |
| O=C1OCC2(CO1)CC1C=CC2C1 (configuration not stated) | > 100 µM | – |
| CC1(C)CCC2(C(=O)OC3OC(CO)C(O)C(O)C3O)CCC3(C)C(=CCC4C5(C)CCC(OC6OC(CO)C(O)C(O)C6O)C(C)(C)C5CCC43C)C2C1 (configuration not stated) | > 25 µM | – |

| Compound | TGI | GI50 [µM] |
| --- | --- | --- |
| CC(NC(=O)C(N)Cc1ccc(O)cn1)C(=O)O (configuration not stated) | > 100 µM | – |
| COc1ccccc1C(C1=C(O)COC1=O)c1cc2c(cc1OC(C)=O)OCO2 (configuration not stated) | > 100 µM | – |
| Clc1cc(Cl)c(Cl)c(-c2nc(-c3cccnc3)cs2)c1 | > 100 µM | > 100 |
| CC1(C)OC(C(N)=O)=C(C(N)=O)O1 | > 100 µM | – |
| CN[C@]12CC3(C=CC(=O)C=C3)O[C@@]1(Cc1ccc(OC)cc1)N(C)C(=O)N2 | 16.8 µM | 4.22 |
| COc1ccc(NC(=O)C(=O)C2CNC(=O)NC2=O)c(OC)c1 (configuration not stated) | > 100 µM | – |
| Cc1cc2c(cc1Cl)SC(N/N=C(\N)c1ccc(Cl)cc1)=NS2(=O)=O | > 100 µM | – |
| COc1ccc(CNC2=C(NC(C)=O)C(=O)c3ccccc3C2=O)cc1 | > 50 µM | – |
| OCC1OC(Oc2cc(O)cc(/C=C\c3ccc(O)cc3)c2)C(O)C(O)C1O (configuration not stated) | > 100 µM | – |
| C/C(CC(=O)NNc1ccc([N+](=O)[O-])cc1)=N\Nc1ccc([N+](=O)[O-])cc1 | > 100 µM | 23.3 |
| C/C=C/C=N/N(C(=O)c1cc([N+](=O)[O-])cc([N+](=O)[O-])c1)C1=NC(c2ccccc2)C(c2ccccc2)=NN1 (configuration not stated) | > 100 µM | – |
| COc1ccc(N=c2ssc(C(=S)Nc3ccc(OC)cc3)c2S)cc1 | > 100 µM | – |
| Cc1cc(C)c(O)c(Cc2cccc(Cc3cc(C)cc(C)c3O)c2O)c1 | > 100 µM | – |
| CCC(C)C1NC(=O)C2CCCN2C(=O)C(CC2CO2)OC(=O)CCNC(=O)C(C)N(C)C(=O)C(C(C)C)N(C)C1=O (configuration not stated) | > 100 µM | – |
| Cc1ccc(S(=O)(=O)OC2=C/C(=N\c3onc(C)c3C)c3ccccc3C2=O)cc1 | > 100 µM | – |
| CC(=O)OCC1OC(n2c(C)c(N=Nc3ccccc3)c(C)c(C#N)c2=S)C(OC(C)=O)C(OC(C)=O)C1OC(C)=O (configuration not stated) | > 100 µM | – |
| O=C1C2=Cc3ccccc3OC2(O)Oc2cc(O)ccc21 (configuration not stated) | > 100 µM | – |
| Cc1ccc2c(=O)cc(-c3cccc4ccccc34)[nH]c2n1 | > 100 µM | – |
| CN(C)CCn1c(=O)c2ccc3c4c(nn3CCN(C)C)c3cc(N)ccc3n(c1=O)c24 | < 0.042 µM | – |
| O=C(CCN1CC2CCC(CC2)C1)c1cccs1 | > 100 µM | – |
| COC(=O)c1ccc(N=NN(C)COc2ccc(C#N)cc2)cc1 | > 100 µM | – |
| Oc1c2cc(Br)cc1CCc1cc(Br)cc(c1O)CC2 | 63.2 µM | – |
| Cc1ccc([N+](=O)[O-])cc1NC(=O)C(=O)Cc1occc(=O)c1O | > 100 µM | – |
| S=c1nc2[nH]ncc2c(N/N=C/c2ccccc2)[nH]1 | > 100 µM | > 100 |
